Assay results taken from the RNAGym collection of RNA variant scans (doi:10.1073/pnas.2313332121).
Variants at the background level are over-represented here.

B1: TPR 5TU (parent)
chain: GGAUCUUCUCGAUCUAACAAAAAAGACAAAUCUGCCACAAAGCUUGAGAGCAUCUUCGGAUGCAGAGGCGGCAGCCUUCGGUGGCGCGAUAGCGCCAACGUUCUCAACUAUGACACGCAAAACGCGUGCUCCGUUGAAUGGAGUUUAUCAUG

Variants of: B1
Assay: polymerase ribozyme fitness, log enrichment relative to wild type (log ratio); higher = more active; in vitro selection for triplet polymerase activity
Procedure, shortened: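 A heterodimeric triplet polymerase ribozyme had each of its subunits mutagenized by PCR into a library, which was transcribed. One round of in vitro selection, done in triplicate, annealed each library with a biotinylated primer, its partner subunit and triplets, then incubated it frozen at −7 °C before gel excision of extended constructs, streptavidin-bead capture and RT-PCR. Fitness is the logarithm of genotype enrichment relative to wild-type enrichment, based on Illumina sequencing of inputs and outputs and inverse-variance-weighted replicate averages. A base-2 logarithm is used, and genotypes were kept only with ≥10 input reads and ≥1 read per output.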

Variant | polymerase ribozyme fitness (log ratio)
C8U G88U G92A | ≤ -4.2
C8U C87A A142C | ≤ -4.2
U9G A21U A24G G71A G84U G126A | ≤ -4.2
C8U C18U A47C C85U G86A U90A G136A U148G | ≤ -4.2
C8U A47C C54U C57U C85G C114U G140U | ≤ -4.2
C8U C75U G84A G141C | ≤ -4.2
U9C A12C G48U G86A U90G U109G A147U A150C U151A | ≤ -4.2
U9C C35G A39U C103G | ≤ -4.2
U9G A16U C27A A37U A41G G58U A91U A110C U134A G141C | ≤ -4.2
U9G C32G G71A | ≤ -4.2
C8U C10G C35G C57A A66U G86U U134C U139C U148A | ≤ -4.2
U9C G86U C103A C116G U139G | ≤ -4.2
U9A A23U U77A | ≤ -4.2
U9A G11U C32G C43G A49C U61C G65C C76A C103G A106C | ≤ -4.2
U9A A19U G68C C93U A113U | ≤ -4.2
C8U C75U G80C G88U U90C C95G | ≤ -4.2
U9G C35U A52C U61A C87A U101C C125A | ≤ -4.2
U9G C57A G86C G126U U145C | ≤ -4.2
U9A A29U C57G G94U C99G A119C | ≤ -4.2
C8U C57U U61A G117A A121U U134C | -4.09
U9A U55A U90G G126C | ≤ -4.2
C8U C18G G50C G58U A73G C76A C93A C116A A120C | ≤ -4.2
U9C A47U U53G A106C A110G G136A | ≤ -4.2
C8U G42C C72U G141U | ≤ -4.2

Variant | polymerase ribozyme fitness (log ratio)
C8U A52G | -3.63
U9G A28C A39G A41C C51U C57G G59C G86A C125G A150G | ≤ -4.2
U9C A16G A39C C51G G92C | ≤ -4.2
C8U G74U G83U U104G A119C | ≤ -4.2
U9A G86A C93U G141C | ≤ -4.2
C8U A49U A52G | -3.79
C8U G74U C79U C93A G143U | ≤ -4.2
U9G C27G U55A C57A G59A | ≤ -4.2
U9C A40C U45A G65C C85A U111G A113U C118G | ≤ -4.2
U9C A40U G58A G94A A107U | ≤ -4.2
U9A C14U A19U C27U U56A G86U C93G A97U G124U U144C | ≤ -4.2
U9A G67U U82G | ≤ -4.2
C8U U13G C27A A29U U55G A89G G92U G136A A150U | ≤ -4.2
U9G C57U G58C G81A C85A | ≤ -4.2
U9A U55A C57A A66C C79U C96G | ≤ -4.2
C8U G88U G94A | ≤ -4.2
U9A C32G C54A G86C U109G G136A | ≤ -4.2
U9A A41C C93U A97U C118U | ≤ -4.2
U9C A24C A40C C93A C105G G141C | ≤ -4.2
C8U A52U U56A U61A C75U C93U C99G C132G | ≤ -4.2
U9A C18G A52G G58C A138G | ≤ -4.2
C8U U9G A24G C54G U101A C105U G141U | ≤ -4.2
U9G C32A A39C C69A C75U G81A | ≤ -4.2
U9A G48A G67U G84U C105G | ≤ -4.2

Variant | polymerase ribozyme fitness (log ratio)
U9G A12U A40G U45A A73U C79A G94C A113U | ≤ -4.2
U9C C51U C93U C103U A150G | ≤ -4.2
U9A A19C G70A C93U A119C A121U C131A | ≤ -4.2
U9C A19C A22C U56C C87A A89U G124A G141C U151A | ≤ -4.2
U9C A30G A66C G84A A150C | ≤ -4.2
C8U A91U | ≤ -4.2
U9C A37U U134G G140C G152U | ≤ -4.2
C8U C69U G70A G124A | ≤ -4.2
U9G C18G C51U C57U C75G C85U | ≤ -4.2
U9A A16G U45A C57A C75G G83U G92A | ≤ -4.2
U9G A17C A26U C36A A60G G83C G86U A97C U101C A106G C132U | ≤ -4.2
U9C A12U G68A C87A A97U | ≤ -4.2
C8U C54A G86A U144C C149U | ≤ -4.2
U9C A37C G46C G92U U109G U145A | ≤ -4.2
U9C U56G G86U C96U | ≤ -4.2
C8U U56A A89U C93U | ≤ -4.2
U9G A12G A40C A41C A107U C108G G117C | ≤ -4.2
U9C A20U U55G A107U C116U | ≤ -4.2
U9G C93A C96U | ≤ -4.2
U9C A37C U55G A66C G70C C76A C131U | ≤ -4.2
U9G A24G C27U A41C A47U C57G G59A U61A C69G G124A A142U | ≤ -4.2
U9G A29U A40C A73G C85A U101G U151A | ≤ -4.2
U9A A64G A89U G92A C131G | ≤ -4.2
U9A C32A G50A U56C C72A A98U A113G C114G | ≤ -4.2

Variant | polymerase ribozyme fitness (log ratio)
U9A U15G G50C G94A U135C G143A | ≤ -4.2
U9A A23C U31G C38U A52C G70C G71C C76U G86U C99G | ≤ -4.2
U9C A52G U53A C114G U145G | ≤ -4.2
U9A G11U G68A G83A C95A A110G | ≤ -4.2
U9G A12C U15A A30C U45A A49C U55A C95A C118U A147U | ≤ -4.2
U9C C76U | -2.74
U9G C87G U90A C93U U151C | ≤ -4.2
U9G C10U U77G G83A A110G | ≤ -4.2
C8U C38A G83A C87U U104G | ≤ -4.2
U9G A24U C96U U144G | ≤ -4.2
U9C G62C C93U | ≤ -4.2
C8U U13A A40C U44G C93G | ≤ -4.2
U9G A60G G71A U82C C85A C87U | ≤ -4.2
C8U U82G C87A | ≤ -4.2
C8U U9C A20U A26G A97G | ≤ -4.2
U9C U31G C36G U44G C69U A91U | ≤ -4.2
U9A A12C A23G G42C C51A A120C A121U | ≤ -4.2
U9A G11U A22U G58C A66U A98G C116U | ≤ -4.2
U9A G25U C36U G50C G86A | ≤ -4.2
U9A G84A C149A | ≤ -4.2
U9G A12U A19U A21U G58A C76U G84A A106U | ≤ -4.2
C8U C43U C85U G100A A142U | ≤ -4.2
U9A A19C C38A G86A G94C U148C | ≤ -4.2
C8U G83U | -3.5

Variant | polymerase ribozyme fitness (log ratio)
U9A G58A A64U | ≤ -4.2
U9A U13G A52G A91U C95A C114U U151G | ≤ -4.2
C8U U61A C76A G86U C93G U101C A122G | ≤ -4.2
C8U A107G | ≤ -4.2
C8U C27U A115G | -4.06
U9G C76G A89C G94U C108U A113U | ≤ -4.2
U9A C87A | ≤ -4.2
U9A A19U A41C C93U C103G A115U | ≤ -4.2
U9C U13G A41C U56C C87U G88C A142G U151G | ≤ -4.2
U9G C32G G59A G92A G141U | ≤ -4.2
C8U G83U G92A C108A G112C U139G | ≤ -4.2
U9A C63U G71A C87U U90C A107G G133C | ≤ -4.2
U9C A28C C32G G42A A47C A60C C85U A97U C132G G133U | ≤ -4.2
U9C U102A U139G | ≤ -4.2
U9A C32A U33G A49U C51U U53A C54U G84U C103A C108G C118G C149U | ≤ -4.2
U9A A16U U56A G84A C131U | ≤ -4.2
U9C A37C G59U G62U G83C A142U | ≤ -4.2
U9A A24C A39U G59A | ≤ -4.2
C8U C85U A106U A142C | ≤ -4.2
U9A A24U A52G G70C C116U | ≤ -4.2
C8U C95U C116G U135A | -3.94
U9G C18G C96U G133U G136A | ≤ -4.2
U9G A29U U45G C75A G88U C96A G141A | ≤ -4.2
U9A C43U U55A U77A C85G | ≤ -4.2

Variant | polymerase ribozyme fitness (log ratio)
U9A G92A U148A | ≤ -4.2
C8U C27A A29U A66U G67A A120U U134A | ≤ -4.2
C8U C43G U45A A91G A107G C131U | ≤ -4.2
U9A A17U A20G G46U A47U A52C G83A C95U | ≤ -4.2
U9G A49C | ≤ -4.2
U9G A24C U61A G84U A122G | ≤ -4.2
U9C C57A C87A C116U | ≤ -4.2
U9G A17G A52U C75G G84A C105U | ≤ -4.2
U9C A12G A20C A26U C38U U44A A113G A121C U134G A138U | ≤ -4.2
U9C A29G U55G A66G C69A G71U C79A G84A | ≤ -4.2
C8U C27U A37C U55A C87G U111A C118G G124A | ≤ -4.2
U9G A23C U61A G86C A121C | ≤ -4.2
U9A A22G G34A A106G C116U A120U | ≤ -4.2
U9C C57U G65C C69U C114G A142C | ≤ -4.2
U9C U31G C38A G65A A66G G74A C87U G124U U139A | ≤ -4.2
U9C A22G A23C G25C G83C | ≤ -4.2
C8U C57U A60C A97U A115U | ≤ -4.2
U9C U53A C57A C79A A107G C131A | ≤ -4.2
U9G C85U G92U U145A | ≤ -4.2
U9G A28G U53A G58A C96A C108G G133C | ≤ -4.2
C8U C43U C93U C99U U104G G141A | ≤ -4.2
U9A C38U C95G A110U U111A | ≤ -4.2
U9G A21U C35U U55A C108U C118U G128A G133A | ≤ -4.2
U9A U15C G48A G50C C96A G133C | ≤ -4.2

Variant | polymerase ribozyme fitness (log ratio)
U9C C85G A113C U130C C131U | ≤ -4.2
U9G A20U U31C C38G G86A U127G | ≤ -4.2
U9G A19G C36U U134C | ≤ -4.2
C8U C79G G84A G94C G136C A138G A150G | ≤ -4.2
U9G A37G C54A C85G G140C | ≤ -4.2
C8U G141C | -2.78
C8U C27G C54A C96G C118U A142C | ≤ -4.2
C8U A41G C103A | ≤ -4.2
U9G A12C A16U U31A G62A G71A G80C C87U C108U | ≤ -4.2
C8U A49G G59C C69U U82G G92U | ≤ -4.2
U9A U56A A60G G74U A107U | ≤ -4.2
U9C C14U C57G C93G G140U | ≤ -4.2
U9A C14G A47U U56G G84A A97G | ≤ -4.2
U9A G48U A52G U53A C85G C95A G152C | ≤ -4.2
U9A A16G U53A G58C A110U U134C U135A | ≤ -4.2
U9C A47U | -3.94
U9G A22U A23C A30U C51U G58C G92U C149G | ≤ -4.2
U9A A21G C51U U53A G58C G71U A91G C96U | ≤ -4.2
U9A U13C A37C G42C C72U C85G G133C | ≤ -4.2
C8U U9C C27A C35A U61G G83C A110C U151G | ≤ -4.2
U9G A41U U53A C96A U102A A150U | ≤ -4.2
U9G A29G C85U A121U G128U | ≤ -4.2
C8U A40C U45A G83A C93A C99A C132G U148A | ≤ -4.2
